# Results published in article PMC4336329 (PLoS ONE, 2015).
# Hit rate of the full screen: of about 310,000 compounds, about 14,000 (4.5%) showed an effect of 50% or more. The effect is printed as a negative number. This is one part of the list.
# Target: human ether-à-go-go-related gene (hERG) potassium channel (human, UniProt Q12809)
# Assay: primary screen, population patch clamp on CHO cells stably expressing hERG
# 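Further: peak tail current of the secondary pulse compared with the same well before compound.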
# Chain of human ether-à-go-go-related gene (hERG) potassium channel (Q12809 whole entry, looked up): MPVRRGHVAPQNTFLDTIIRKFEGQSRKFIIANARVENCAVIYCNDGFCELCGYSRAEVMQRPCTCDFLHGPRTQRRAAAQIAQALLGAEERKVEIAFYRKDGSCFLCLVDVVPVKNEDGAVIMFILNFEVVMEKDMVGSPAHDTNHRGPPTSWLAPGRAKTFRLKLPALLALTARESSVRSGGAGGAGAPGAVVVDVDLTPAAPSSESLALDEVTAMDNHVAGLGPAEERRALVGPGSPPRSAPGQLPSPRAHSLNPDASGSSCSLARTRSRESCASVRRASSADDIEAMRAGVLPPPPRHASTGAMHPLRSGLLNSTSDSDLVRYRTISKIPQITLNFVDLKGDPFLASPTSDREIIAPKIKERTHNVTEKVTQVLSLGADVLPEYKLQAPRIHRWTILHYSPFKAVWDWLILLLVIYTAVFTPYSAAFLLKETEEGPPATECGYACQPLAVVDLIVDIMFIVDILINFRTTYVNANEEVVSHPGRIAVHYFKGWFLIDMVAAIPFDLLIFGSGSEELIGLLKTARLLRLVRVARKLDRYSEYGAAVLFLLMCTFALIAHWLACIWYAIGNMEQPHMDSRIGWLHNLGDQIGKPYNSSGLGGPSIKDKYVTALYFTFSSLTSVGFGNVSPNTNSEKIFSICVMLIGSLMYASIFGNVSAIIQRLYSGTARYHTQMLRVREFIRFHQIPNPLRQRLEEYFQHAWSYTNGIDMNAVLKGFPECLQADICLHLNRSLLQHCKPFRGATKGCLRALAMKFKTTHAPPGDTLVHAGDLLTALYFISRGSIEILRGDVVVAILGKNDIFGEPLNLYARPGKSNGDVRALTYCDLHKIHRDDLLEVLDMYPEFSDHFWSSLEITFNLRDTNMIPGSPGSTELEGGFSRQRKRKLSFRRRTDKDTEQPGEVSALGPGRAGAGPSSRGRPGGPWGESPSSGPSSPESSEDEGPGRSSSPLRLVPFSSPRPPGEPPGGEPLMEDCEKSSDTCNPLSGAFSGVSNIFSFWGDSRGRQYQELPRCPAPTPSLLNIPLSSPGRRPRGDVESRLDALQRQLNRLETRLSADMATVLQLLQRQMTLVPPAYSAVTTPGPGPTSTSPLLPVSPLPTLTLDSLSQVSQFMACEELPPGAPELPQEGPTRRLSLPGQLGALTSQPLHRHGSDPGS
row,Compound,"hERG current change (%, negative = inhibition) at 10uM [%]"
1,Cc1ccccc1C(=O)Nc1ccnn1C1CCN(C(=O)C2CCOC2)CC1 (stereo not shown),9.33
2,C#CCn1cc(/C=N/NC(=O)COc2cccc3cccnc23)c2ccccc21,21.1
3,Nn1c(SCC(=O)NC(=O)NCc2ccco2)nnc1-c1ccc(OC(F)F)cc1,-45
4,Cc1cc(C)c(S(=O)(=O)NCc2ccc3c(c2)OCO3)c(C)c1,16.3
5,Cc1cc(=O)[nH]c(SCc2cccc3cccnc23)n1,13.3
6,Cc1ccc(SCCC(=O)Nc2ccc(Br)c(C)c2)cc1,7.7
7,COc1ccc(N=CC2=C(O)c3ccccc3C2=O)c(OC)c1,-7.43
8,CC1=C(C(=O)OCC2CCCO2)C(c2ccsc2)C2=C(CCCC2=O)N1 (stereo not shown),-9.68
9,COCc1cc(=O)[nH]c(/N=C(\N)Nc2c(F)cccc2F)n1,1.97
10,COc1ccc(CNC(=O)/C(C#N)=C/c2cccc(OC)c2OC)cc1,-11.6
11,O=C(COC(=O)C1CCCC1)Nc1ncc(Cl)cc1Cl,5.91
12,O=C(N/C(=C/c1ccccc1)C(=O)N1CCCCCC1)c1ccccc1,-12.4
13,COc1ccc(NC(=O)COC(=O)C2CCC2)cc1Cl,13.2
14,O=C(Nc1ccccc1)N(C1=NCCC1)c1ccccc1,-5.01
15,COc1ccc(C(CNC(=O)Cn2[nH]c(=O)c3ccccc3c2=O)N2CCCC2)cc1 (stereo not shown),-0.499
16,O=C(CN1CCN(c2ccccc2O)CC1)Nc1ccnn1C1CCCC1,3.74
17,Cc1cc(NC(=O)c2cccc(S(=O)(=O)N3CCOCC3)c2)no1,11.1
18,Nc1nonc1-n1nnc(C(=O)N/N=C/c2ccc(F)cc2)c1-c1cccs1,15.2
19,CCc1ccc(S(=O)(=O)NC(CC(=O)O)c2ccccc2)cc1 (stereo not shown),-6.2
20,CN(C)NC(=S)Nc1ccc(S(=O)(=O)N2CCCCC2)cc1,-5.26
21,O=C(CN1C(=O)c2ccccc2S1(=O)=O)NCCSC1CCCCC1,-24.7
22,CCC(=O)N1CCc2cc(S(=O)(=O)NCCCN(CC)Cc3ccccc3)ccc21,-3.81
23,COc1ccc(OC)c(NC(=O)c2cccc3c2C(=O)N(C2CCCCC2)C3)c1,-0.53
24,O=C(CN1C(=O)CSc2ccc(S(=O)(=O)N3CCOCC3)cc21)NCc1ccc(F)cc1,-27.6
25,COc1ccc(NC(=O)c2cccnc2N2CCOCC2)cc1,50.5
